In PubChem BioAssay AID1346428 (National Center for Advancing Translational Sciences (NCATS), 2018):
Among all 48,000 compounds or so, about 1,200 (2.5%) were called active. Not shown: some 2% with an inconclusive outcome.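 Rule for the calls: active = activation of at least 60% and not above a set upper limit (about 1 call in 100 departs from these limits); inconclusive = activation of 40% to 60%, or above that upper limit; inactive = activation under 40%.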 The list shows a part of the results.

The molecules below were run against Probable G-protein coupled receptor 32 (Homo sapiens) (UniProt O75388) (assay: qHTS for Agonists of Human Resolvin D1 Receptor DRV1). Details: CHO-K1 GPR32 beta-arrestin PathHunter luminescence, 90 min; at 76.9 µM; hits give high values; zero percent set by DMSO-only wells.
How it was run: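 Agonism was scored by beta-Gal fragment complementation (chemiluminescent read, 1 h detection at ambient temperature) reporting beta-arrestin binding to GPR32 in engineered CHO-K1 cells. Compound treatment lasted 90 min at 37 C, normalized to a DMSO basal control.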
Note: 0% is about no effect.

Chain of UniProt O75388 (O75388 whole entry, looked up, the tested form may be a part): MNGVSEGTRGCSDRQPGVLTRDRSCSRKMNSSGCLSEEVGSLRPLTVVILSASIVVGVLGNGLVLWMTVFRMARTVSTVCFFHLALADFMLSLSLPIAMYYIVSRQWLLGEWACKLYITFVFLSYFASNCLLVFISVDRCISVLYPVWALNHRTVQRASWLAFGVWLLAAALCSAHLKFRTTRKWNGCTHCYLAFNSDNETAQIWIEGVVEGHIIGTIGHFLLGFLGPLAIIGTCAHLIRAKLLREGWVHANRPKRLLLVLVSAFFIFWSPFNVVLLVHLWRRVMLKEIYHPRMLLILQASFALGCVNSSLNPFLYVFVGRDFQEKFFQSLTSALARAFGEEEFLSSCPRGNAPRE

activation, active:
COc1cccc(C(=O)NCCc2csc3nc(-c4ccccc4F)nn23)c1OC 68.4%
COc1ccc2c(CNCCc3ccc(SC)cc3)c(C(=O)O)n(Cc3ccc(F)cc3)c2c1 115%
Cc1nc(-c2ccc(S(=O)(=O)Nc3cc(Cl)ccc3C)cc2)co1 82.3%

activation, inactive:
COc1ccc(CCNC(=O)c2ccc3c(c2)sc2nc(-c4ccccc4)cn23)cc1OC -11.6%
Cc1cc(OCC(=O)NCCc2nc3ccccc3[nH]2)cc(C)c1Cl -16%
O=S(=O)(c1ccccc1)c1nc(-c2ccccc2Cl)oc1N1CCCCCC1 -24%
Cc1cc(C)c(S(=O)(=O)NCCS(=O)(=O)N2CCN(c3ccccc3)CC2)c(C)c1 -41.7%
Cc1ccc(S(=O)(=O)C(CNC(=O)c2c(F)cccc2F)c2ccco2)cc1 (stereo not drawn) 4.03%
Cc1cccc(C(=O)N2CCc3cc(CNC(=O)c4cc5ccccc5[nH]4)ccc32)c1 -6.25%
CCn1nc(C)c(CCN(C)C(=O)Nc2cccc(Cl)c2C)c1C 11.7%
Cc1ccc(CNC(=O)C(C)n2c(=O)cc(C(F)(F)F)c3c(C)nn(C)c32)cc1 (stereo not drawn) -3.02%
COc1ccc(CNC(=O)Cc2c(C(=O)O)c(C)cn2C)cc1 1.63%
COc1ccc(-c2nc3scc(CCNS(=O)(=O)c4ccc5c(c4)OCCO5)n3n2)cc1OC -11.4%
O=C(NCc1ccc(F)cc1Cl)c1cc(=O)[nH]c2ccc(S(=O)(=O)N3CCCCC3)cc12 -13.6%
Cc1ncc([N+](=O)[O-])n1CC(C)O (stereo not drawn) -0.393%
CCOc1ccc(C(=O)Nc2c(C(=O)Nc3ccccc3OC)oc3ccccc23)cc1OCC 6.44%
Cc1cc(C)cc(OCCSc2nc3ccc(NC(=O)c4cccs4)cc3s2)c1 -9.01%
Cc1c(-c2ccccc2)c(=O)oc2ccc(OC(=O)N3CCOCC3)cc12 -12.6%
C/C=C(/C(=C/C)c1ccc(O)cc1)c1ccc(O)cc1 41.3%
O=C(Cn1cc(C(=O)C2CCCCC2)c2ccccc21)Nc1ccccc1Cl 3.23%
COc1ccc2c(C)c(CC(=O)NCCc3ccc(Cl)cc3)c(=O)oc2c1C -6.74%
CCOc1ccc(NC(=O)CSC2=Nc3ccccc3C3=NC(CC(=O)NCc4cccs4)C(=O)N23)cc1 (stereo not drawn) -23.3%
COc1cc(-c2cc(OC)c3c(C)oc(C)c3c(=O)c2)ccc1OC(=O)c1ccc(C)cc1 -29.1%
O=C(CSc1n[nH]c(-c2ccccc2Cl)n1)NCCCc1ccccc1 6.99%
OC1(c2ccc(Cl)cc2)CCN(Cc2c[nH]c3ccccc23)CC1 7.23%
CC(CCc1ccccc1)NC(=O)Cn1c(=O)nc(-c2ccccc2)c2cc(Cl)ccc21 (stereo not drawn) -16.3%
CCc1ccc2oc(C(=O)N(Cc3ccc(N(C)C)cc3)Cc3ccco3)c(C)c2c1 -48%
CC1=C(c2ccc(C)c(C)c2)S(=O)(=O)N=C1N1CCC(C(=O)NC(C)c2ccccc2)CC1 (stereo not drawn) -12.3%
CCCN(CCC)C(=O)c1cc2c(=O)n3cccc(C)c3nc2s1 3.73%
Cc1ccc(-c2cn3c(n2)sc2cc(C(=O)NCCCN4CCCCCC4)ccc23)cc1 6.44%
CC(=O)c1cccc(NC(=O)C2CCN(c3ncnc4c3nc3n4CCCCC3)CC2)c1 14.1%
O=C1c2ccccc2-c2onc3c(N4CCN(C5CCCCC5)CC4)cc(NCCO)c1c23 -13%
O=C(O)c1ccccc1OP(=O)(O)O -1.01%
COc1ccc(CCNC(=O)c2ccc3c(c2)CCN3S(C)(=O)=O)cc1OC 14.7%
COc1ccc2c(c1)c(=O)c(C(=O)c1ccccc1)cn2CC(=O)Nc1ccc2c(c1)OCO2 -3.2%
COc1ccc(Cn2cc(S(=O)(=O)c3ccc(C)cc3)c(=O)c3cc(F)ccc32)cc1 -14.3%
O=c1c2ccccc2nc(/C=C/c2cccc3ccccc23)n1-c1ccc(F)cc1F -22%
COc1ccccc1N1CCN(CCN(C(=O)c2ccc(I)cc2)c2ccccn2)CC1 -4.28%
CCS(=O)(=O)c1ncc(Cl)c(C(=O)N2CCN(c3ccc(OC)cc3)CC2)n1 -19.3%
CCOc1ccc(NC(=O)c2oc3ccccc3c2NC(=O)COc2cccc(OC)c2)cc1 11.1%
Cc1cccc(CN2C(=O)c3ccccc3Sc3ccc(C(=O)NCc4ccco4)cc32)c1 -27.4%
CCC(Sc1nc2c(sc3ccccc32)c(=O)n1CCc1ccc(OC)c(OC)c1)C(=O)N(CC)CC (stereo not drawn) -0.949%
CCC(CC)C(=O)Nc1nnc(S(=O)(=O)N2CCCCCC2)s1 -9.19%
Cc1ccc(CNC(=O)CCc2cn(C)c3ccccc23)cc1 -18.2%
NS(=O)(=O)c1ccc(CCNC(=O)C2CCN(c3ncnc4c3nc3n4CCCCC3)CC2)cc1 1.28%
COC(=O)c1ccc(Nc2ncnc3c2cnn3C)cc1 -9.36%
CC1CCN(S(=O)(=O)N2CCC(C(=O)NCc3ccccc3Cl)CC2)CC1 -9%
Cc1cn2c(=O)cc(COC(=O)c3ccc(NC(=O)c4ccc(F)cc4)cc3)nc2s1 -21.9%
CCOC(=O)c1ccc(NC(=O)c2cnn3c(=O)c4c(n(CC)c23)CCN(Cc2ccc(OC)cc2)C4)cc1 -15.7%
CCN(CC)c1ccc(NC(=O)c2cc(C)nc3c2c(C)nn3-c2ccc(C)cc2)c(C)c1 -2.17%
CC(Sc1nccn1C)C(=O)Nc1ccccc1C#N (stereo not drawn) -13.1%
COc1ccc(CNC(=O)Cc2c(C)c3cc4c(C)coc4cc3oc2=O)cc1OC -11.9%
COc1ccc(C2c3[nH]c4ccccc4c3CCN2C(=O)CCC2CCCC2)cc1 (stereo not drawn) -40.7%
CCN(CC)C(=O)c1sc2c(c1C)c(=O)n(-c1ccc(C)c(C)c1)c(=O)n2Cc1cc(=O)n2ccccc2n1 -7.81%
COc1ccc(-c2nc3scc(CCNS(=O)(=O)c4ccc(Oc5ccccc5)cc4)n3n2)cc1OC -16.8%
Cc1ccsc1CCN1C(=O)N(c2ccccc2)C(=O)C1CC(=O)Nc1ccc(Cl)cc1 (stereo not drawn) 1.05%
CC(=O)c1cccc(NC(=O)Nc2sc3nc4n(c(=O)c3c2C)CCC(C)CC4)c1 (stereo not drawn) -6.98%
CCN(CC)C(=O)c1sc2c(c1C)c(=O)n(Cc1ccccc1)c(=O)n2Cc1ccccc1C -50.5%
O=C(CNC(=O)c1ccccc1)OCc1cc(=O)n2nc(C3CCCCC3)sc2n1 -3.24%
Cc1ccc2sc(N(Cc3cccnc3)C(=O)CCS(=O)(=O)c3ccccc3)nc2c1C -14.8%
COc1ccc(N2CCN(C(=O)CSc3nc(-c4ccc(C(C)C)cc4)no3)CC2)cc1 -29%
Cc1cccc(Nc2ncnc3onc(-c4ccc(Cl)cc4)c23)c1C -0.829%
COc1ccc(C(=O)Nc2cccc(C(=O)OCc3cc(=O)n4nc(C5CC5)sc4n3)c2)cc1 36.6%
Cc1cc(F)ccc1NC(=O)C(c1ccccc1)N1Cc2ccccc2C1=O (stereo not drawn) -8.45%
Nc1c(C(=O)Nc2ccc(F)cc2)sc2nc(-c3cccs3)cc(C(F)(F)F)c12 2.87%
COC(=O)c1ccc([C@@H]2Nc3c(OC)ccc(C)c3[C@@H]3C=CC[C@@H]32)cc1 -17%
Cc1ccc(-n2c(=O)c3cccnc3n2CC(=O)NCc2ccc(Cl)cc2)cc1 14.5%
Cc1ccc2oc3c(c(=O)c2c1)C(c1ccc(O)cc1)N(CCCN(C)C)C3=O (stereo not drawn) 8.86%
CCn1c2ccccc2c2cc(CN3CCN(Cc4ccc(Br)cc4)CC3)ccc21 -15.9%
CC1N=C2c3ccccc3N=C(SCC(=O)NCCc3ccc(Cl)cc3)N2C1=O (stereo not drawn) -3.54%
O=C(CCS(=O)(=O)c1cc2c(cc1Cl)NC(=O)CO2)NCc1ccc(Cl)cc1 1.11%
O=c1cc(-c2ccccc2)c2ccc3c(c2o1)CN(Cc1cccc(Cl)c1)CO3 -30.6%
COc1ccc2[nH]cc(CCN=C(NC(=O)c3ccccc3F)Nc3nc(C)cc(C)n3)c2c1 -1.13%
CCOc1ccc(CC(=O)Nc2cccc(-c3nc4cccnc4s3)c2C)cc1 -21.5%
Cc1ccccc1NC(=O)Cn1c(=O)n(CCCC(=O)NCc2ccc3c(c2)OCO3)c(=O)c2ccccc21 -5.98%
Cc1c(C(=O)Nc2ccccc2Br)oc2ccc(S(=O)(=O)N3CCCCCC3)cc12 -6.61%
C=C(C)CSc1nc2sc3c(c2c(=O)n1Cc1ccccc1)CC(C)(CC)OC3 (stereo not drawn) -31.7%
Cc1ccc(-c2cn3cccnc3n2)cc1NC(=O)C(C)(C)Oc1ccc(Cl)cc1 -21.8%
COc1ccc(Cl)cc1NC(=O)c1c(NCc2ccc(C)o2)sc2c1CCC(C)C2 (stereo not drawn) -10.9%
C[C@]12CCC(=O)C=C1[C@@H]1C[C@@H]1[C@H]1[C@@H]3[C@@H]4C[C@@H]4[C@@]4(CCC(=O)O4)[C@@]3(C)CC[C@@H]12 36.2%
CCC(C)NC(=O)CN1C(=O)c2cccnc2Sc2ccccc21 (stereo not drawn) -19.8%
COc1cccc(NCc2cccn2-c2nnc(N3CCC(C)CC3)s2)c1 -2.78%
COc1ccccc1NC(=O)CSc1ncc2c(n1)-c1ccccc1N(Cc1ccccc1C)S2(=O)=O -10.8%
